Measurements published in the supplement of paper PMC7125110.
± gives the standard error. Variants at the floor of the assay are shown more often than the library holds them.

B1: glmS ribozyme (parent)
chain: AUAAAAGCGCCAGAACUACAGAAAUGUAGUUGACGAGGAGGAGGUUUAUCGAAUUUUCGGCGGAUGCCUCCAAA

What was measured:
Details in all cases: with glucosamine-6-phosphate
[1] = variants of: B1; experiment: self-cleavage kobs at 640 uM GlcN6P; higher = faster cleavage; RNA array
How it was run: (§1)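 Over ~14 h at 37 °C, tiles were imaged as glucosamine-6-phosphate (40 μM to 10 mM) in HEPES/KCl/Mg(OAc)2 buffer flowed across sequenced MiSeq chips. The chips carried barcoded ribozyme variants transcribed in situ by E. coli RNA polymerase and tracked with a hybridised Cy3 probe. After normalisation to baseline and to non-cleaving reference variants, one- or two-exponential decay fits of per-tile medians gave kobs. kcat and KM followed from weighted Michaelis–Menten fits across concentrations.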

[2] = variants of: B1; experiment: self-cleavage kobs at 160 uM GlcN6P; higher = faster cleavage; RNA array
How it was run: as §1

[3] = variants of: B1; experiment: self-cleavage kobs at 2500 uM GlcN6P; higher = faster cleavage; RNA array
How it was run: as §1

[4] = variants of: B1; experiment: self-cleavage kobs at 10000 uM GlcN6P; higher = faster cleavage; RNA array
How it was run: as §1

Variant	self-cleavage kobs at 640 uM GlcN6P [1]	self-cleavage kobs at 160 uM GlcN6P [2]	self-cleavage kobs at 2500 uM GlcN6P [3]	self-cleavage kobs at 10000 uM GlcN6P [4]
G32U A64G	0.000178 ± 2.3e-05 s⁻¹	4.19e-05 ± 1.1e-05 s⁻¹	0.00034 ± 4.6e-05 s⁻¹	0.000774 ± 0.00011 s⁻¹
A33U G37U A53G	< 1e-05 s⁻¹			
A36C G41C G59U	< 1e-05 s⁻¹	< 1e-05 s⁻¹	< 1e-05 s⁻¹	
A36U A39G G43C	< 1e-05 s⁻¹			
C34G U45G C50A C58A C71G	< 1e-05 s⁻¹			< 1e-05 s⁻¹
G37A C50A C61G	< 1e-05 s⁻¹	< 1e-05 s⁻¹		
C34A U46G A64G	< 1e-05 s⁻¹			< 1e-05 s⁻¹
A33U U56G G60A	< 1e-05 s⁻¹			
C34U U55C C67U	< 1e-05 s⁻¹			
U30G U69A	4.5e-05 ± 1.1e-05 s⁻¹	3.45e-05 ± 1.7e-05 s⁻¹	0.00013 ± 2e-05 s⁻¹	6.73e-05 ± 1.4e-05 s⁻¹
A33C G41U U65G	< 1e-05 s⁻¹		< 1e-05 s⁻¹	
G35C G51C C61U G66C	< 1e-05 s⁻¹			
U31C C34U	< 1e-05 s⁻¹		< 1e-05 s⁻¹	< 1e-05 s⁻¹
A36U C50A G51U	< 1e-05 s⁻¹			
U30C G32U U47A	0.000115 ± 3.3e-05 s⁻¹		0.000106 ± 3e-05 s⁻¹	
G32U G37C	< 1e-05 s⁻¹			< 1e-05 s⁻¹
G29C G43A G63A	< 1e-05 s⁻¹		< 1e-05 s⁻¹	
C34U C61G	< 1e-05 s⁻¹	< 1e-05 s⁻¹		
G35U U45G G51A C58G	< 1e-05 s⁻¹		< 1e-05 s⁻¹	
A33G G40A G60A C61A C70U	< 1e-05 s⁻¹		< 1e-05 s⁻¹	

Variant	self-cleavage kobs at 640 uM GlcN6P [1]	self-cleavage kobs at 160 uM GlcN6P [2]	self-cleavage kobs at 2500 uM GlcN6P [3]	self-cleavage kobs at 10000 uM GlcN6P [4]
G35U G41U G63U	< 1e-05 s⁻¹			
G32A G38C A48U C61U	< 1e-05 s⁻¹	< 1e-05 s⁻¹	< 1e-05 s⁻¹	< 1e-05 s⁻¹
G37C G63U G66C	< 1e-05 s⁻¹			< 1e-05 s⁻¹
C34A G51A A52G	< 1e-05 s⁻¹			
A36C G38U A39C	< 1e-05 s⁻¹			< 1e-05 s⁻¹
A33U C50U G62C	< 1e-05 s⁻¹	< 1e-05 s⁻¹	< 1e-05 s⁻¹	
U30C A33G A36C G62C	< 1e-05 s⁻¹			
G32C G40A U56C C70U	< 1e-05 s⁻¹		< 1e-05 s⁻¹	
G32U A42U G62C C68G	< 1e-05 s⁻¹			
C34G G41U A42U A52G A53G A64G	< 1e-05 s⁻¹		< 1e-05 s⁻¹	
A36G G41A G43C C71G	< 1e-05 s⁻¹			
G38U A42U G62U	< 1e-05 s⁻¹	< 1e-05 s⁻¹	< 1e-05 s⁻¹	
G35U U56C	< 1e-05 s⁻¹		< 1e-05 s⁻¹	< 1e-05 s⁻¹
G35U U45A U57C C68A	< 1e-05 s⁻¹	< 1e-05 s⁻¹	< 1e-05 s⁻¹	
U31G A48C G59C	< 1e-05 s⁻¹			
A33G G35C C61U C67G	< 1e-05 s⁻¹			
A33U G35A A52U A53G	< 1e-05 s⁻¹		< 1e-05 s⁻¹	
G32A A33G C34G A39C G60A	< 1e-05 s⁻¹			
G35U C61U	< 1e-05 s⁻¹	< 1e-05 s⁻¹	< 1e-05 s⁻¹	
U30A U45C G59A	< 1e-05 s⁻¹			

Variant	self-cleavage kobs at 640 uM GlcN6P [1]	self-cleavage kobs at 160 uM GlcN6P [2]	self-cleavage kobs at 2500 uM GlcN6P [3]	self-cleavage kobs at 10000 uM GlcN6P [4]
G32A G66U	4.96e-05 ± 1.7e-05 s⁻¹		5.52e-05 ± 1.1e-05 s⁻¹	0.000118 ± 1.6e-05 s⁻¹
G35U G44U C70U	< 1e-05 s⁻¹			
G32A A42U	< 1e-05 s⁻¹	< 1e-05 s⁻¹		
A33U A36U	< 1e-05 s⁻¹	< 1e-05 s⁻¹	< 1e-05 s⁻¹	< 1e-05 s⁻¹
A36U U45G A48G	< 1e-05 s⁻¹			
U30A G35C	< 1e-05 s⁻¹	< 1e-05 s⁻¹	< 1e-05 s⁻¹	< 1e-05 s⁻¹
A33U U55C G59U C67A C71A	< 1e-05 s⁻¹			
U30C G37U C58A C68G	7.09e-05 ± 2.2e-05 s⁻¹		0.000165 ± 3.6e-05 s⁻¹	
G37C U49G C61G	< 1e-05 s⁻¹			
G35A U54G	< 1e-05 s⁻¹	< 1e-05 s⁻¹	< 1e-05 s⁻¹	
U31C A39G U45C C50U	< 1e-05 s⁻¹		< 1e-05 s⁻¹	
U31G C34G U47C G63U	< 1e-05 s⁻¹		< 1e-05 s⁻¹	
G32A A53C C71U	7.17e-05 ± 2.3e-05 s⁻¹	3.67e-05 ± 1.6e-05 s⁻¹	0.000197 ± 4.7e-05 s⁻¹	
A33C A36U A39U	< 1e-05 s⁻¹			
G37C A39U G40U U49G	< 1e-05 s⁻¹	< 1e-05 s⁻¹		
G37U U54A U55G C61U G62C	< 1e-05 s⁻¹			
G35C A53G	< 1e-05 s⁻¹	< 1e-05 s⁻¹	< 1e-05 s⁻¹	< 1e-05 s⁻¹
U30A U49C U57C	< 1e-05 s⁻¹			
